According to publication PMC4336329 (PLoS ONE, 2015):
The campaign covered roughly 310,000 compounds. About 14,000 (4.5%) showed an effect of 50% or more. Effects have a minus sign here. The list shows a part of the results.

Target: human ether-à-go-go-related gene (hERG) potassium channel (human, UniProt Q12809)
Assay: primary screen, population patch clamp on CHO cells stably expressing hERG
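Further: peak tail current of the secondary pulse compared with the same well before compound.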

Chain of human ether-à-go-go-related gene (hERG) potassium channel (Q12809 whole entry, looked up): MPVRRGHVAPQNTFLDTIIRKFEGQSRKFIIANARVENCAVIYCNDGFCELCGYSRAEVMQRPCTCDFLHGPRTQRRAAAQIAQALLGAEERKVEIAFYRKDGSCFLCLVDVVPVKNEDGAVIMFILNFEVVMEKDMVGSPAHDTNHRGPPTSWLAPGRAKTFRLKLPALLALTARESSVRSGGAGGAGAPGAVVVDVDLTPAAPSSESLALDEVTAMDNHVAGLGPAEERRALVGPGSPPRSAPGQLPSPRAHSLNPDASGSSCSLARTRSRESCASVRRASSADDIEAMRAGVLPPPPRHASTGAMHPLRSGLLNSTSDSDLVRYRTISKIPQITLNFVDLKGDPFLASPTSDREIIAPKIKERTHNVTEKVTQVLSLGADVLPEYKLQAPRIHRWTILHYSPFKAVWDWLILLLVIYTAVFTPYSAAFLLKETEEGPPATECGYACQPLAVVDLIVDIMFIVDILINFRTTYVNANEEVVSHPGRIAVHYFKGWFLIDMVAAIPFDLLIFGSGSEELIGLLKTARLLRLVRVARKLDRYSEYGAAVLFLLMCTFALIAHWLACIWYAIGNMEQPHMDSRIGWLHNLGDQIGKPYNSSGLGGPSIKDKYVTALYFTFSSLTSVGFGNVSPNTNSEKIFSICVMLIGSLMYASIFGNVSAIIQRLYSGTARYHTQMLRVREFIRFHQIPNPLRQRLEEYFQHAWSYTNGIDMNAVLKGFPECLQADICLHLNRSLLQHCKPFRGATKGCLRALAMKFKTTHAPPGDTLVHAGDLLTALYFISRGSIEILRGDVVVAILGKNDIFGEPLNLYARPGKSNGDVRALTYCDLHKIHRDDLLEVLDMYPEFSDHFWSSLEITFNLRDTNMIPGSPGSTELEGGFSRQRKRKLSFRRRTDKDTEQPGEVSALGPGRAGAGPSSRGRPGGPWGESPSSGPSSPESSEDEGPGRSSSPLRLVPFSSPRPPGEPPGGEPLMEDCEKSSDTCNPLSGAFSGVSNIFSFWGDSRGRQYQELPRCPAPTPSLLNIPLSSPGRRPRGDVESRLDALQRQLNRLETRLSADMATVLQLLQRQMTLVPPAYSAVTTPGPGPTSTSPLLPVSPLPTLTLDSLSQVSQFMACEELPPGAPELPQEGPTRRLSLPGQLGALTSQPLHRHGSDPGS

| Compound | hERG current change (%, negative = inhibition) at 10uM [%] |
| --- | --- |
| Cc1cc(Br)ccc1NC(=O)c1ccccc1-c1ccccc1 | 32.3 |
| Cc1cc(C)c(S(=O)(=O)NCCc2cc3ccc(C)c(C)c3[nH]c2=O)c(C)c1 | 14.9 |
| C[C@H](NC(=O)C1CC(=O)N(c2ccc3c(c2)OCO3)C1)C(=O)NC1CCCC1 (some centres unmarked) | -9.72 |
| COc1ccccc1C(=O)NCCC(=O)N(C)CC(=O)Nc1ccc(Cl)cc1 | -31.9 |
| CC[C@@H](CCC=C(C)C)C(=O)N(Cc1ccccc1)c1ccccc1 | 3.94 |
| O=Cc1cn(CCC(=O)O)nc1-c1cccc(Br)c1 | 24.2 |
| CCC(=O)N/N=c1/sc2ccccc2n1C | 13.9 |
| O=C1NC(=O)N(C2CCCCC2)C(=O)C1C1c2ccccc2C(=O)N1Cc1ccccc1 (centres unmarked) | -0.0704 |
| CN(CC(=O)O/N=C(\N)c1ccc([N+](=O)[O-])cc1)S(=O)(=O)c1ccc2ccccc2c1 | -12.6 |
| COc1ccc(N2CC(C(=O)Nc3ccc4c(c3)OCCO4)CC2=O)cc1 (centres unmarked) | 4.94 |
| Cc1ccc(-c2noc(CCC(=O)NCCN3CCc4ccccc4C3)n2)cc1 | -37.4 |
| COc1ccc(S(=O)(=O)N2CCOCC2)cc1C(=O)N(C)CCOc1ccc(Cl)cc1 | -79.8 |
| CC1(C)CC(NCc2ccncc2)CC(C)(C)N1 | 37.1 |
| CCNS(=O)(=O)c1ccc(NC(=S)NCc2ccco2)cc1 | 3.26 |
| Cc1ccc(N/C=C/C(=O)c2ccccc2)cc1C | 16.3 |
| CCOC(=O)C1CCN(C(=O)Nc2ccc3nccnc3c2)CC1 | -16.1 |
| COC(=O)NC(=C(Cl)Cl)S(=O)(=O)c1ccccc1 | 2.84 |
| Nc1nnc(SCC(=O)N2CCN(c3cccc(Cl)c3)CC2)n1-c1ccccc1 | -18.2 |
| COc1ccccc1-c1cc(C(F)(F)F)nc(N2CCN(c3ccccc3)CC2)n1 | 3.5 |
| CC(=O)c1cccc(NC(=O)Cn2cnc(S(=O)(=O)N3CCOCC3)c2)c1 | 11.9 |
| CCNC(=O)/C(C#N)=C/c1c(N2CCN(C)CC2)nc2c(C)cccn2c1=O | 12.2 |
| CCn1c2ccccc2c2cc([N+](=O)[O-])ccc21 | 7.95 |

| Compound | hERG current change (%, negative = inhibition) at 10uM [%] |
| --- | --- |
| CCn1cc(C(=O)NC2CCCCC2)c(=O)c2cc(S(=O)(=O)N(C)C)ccc21 | 2.38 |
| COc1cc(O)c(/C=N/NC(=O)c2ccncc2)c(OC)c1[N+](=O)[O-] | -5.01 |
| Cc1nc(N2CCC(C)CC2)c2oc3ccccc3c2n1 | 6.63 |
| COc1ccc(NC(=O)C/C(C)=N/NC(=O)c2cccs2)c([N+](=O)[O-])c1 | -54.4 |
| COc1ccc(C)cc1C(=O)CCC(=O)NCCc1ccc(S(N)(=O)=O)cc1 | 19.6 |
| COc1cccc(OCC(=O)N2CCCc3ccccc32)c1 | -0.515 |
| COc1ccc(Cl)cc1Nc1ncnc2sc(C)c(S(=O)(=O)N3CCC(C)CC3)c12 | 3.4 |
| Cc1ccc(N2CCN(C(=O)c3ccccc3NC(=O)C3CCCCC3C(=O)O)CC2)cc1 (centres unmarked) | 9.14 |
| CCOc1ccc2nc(N/C(N)=N/S(C)(=O)=O)nc(C)c2c1 | 2.24 |
| COc1ccc2oc(C(=O)OCC(=O)NC(=O)NC(C)C)c(C)c2c1 | 25.9 |
| CCC(=O)Oc1ccc(C(=O)Nc2cccc(NC(=O)c3ccco3)c2)cc1 | -1.82 |
| Cn1c(NC(=O)c2cc(-c3ccc4c(c3)OCO4)nc3ccccc23)cc(=O)n(C)c1=O | 8.89 |
| O=C(CN1CCC(NC(=O)C2CC2)CC1)Nc1ccccc1[N+](=O)[O-] | 22.1 |
| COc1ccc(C(CCN2CCCCC2)c2c(OC)cc(OC)c3c(-c4ccccc4)cc(=O)oc23)cc1 (centres unmarked) | -55.1 |
| CC(=O)COC(=O)c1cccc(N2C(=O)C3C4C=CC(C4)C3C2=O)c1 (centres unmarked) | 3.38 |
| CCOc1ccc(C2C(C#N)=C(N)Oc3cc(C)oc(=O)c32)cc1 (centres unmarked) | 9.66 |
| COc1ccc(Cl)cc1NC(=S)NCc1cccnc1 | -15.3 |
| O=C(NNC1=NCCC1)C1CC1 | 23.9 |
| COc1cc(-n2c(C)nc3cc(C(=O)NCC4CCCO4)ccc32)cc(OC)c1OC (centres unmarked) | 11.3 |
| Cc1ccc(N2C(=O)CC(n3nc(C)cc3C)C2=O)cc1 (centres unmarked) | -19.8 |
| Cn1c(=O)n(C)c2cc(NC(=O)COc3ccc(Cl)cc3)ccc21 | -59.4 |
| Cc1nc(-c2ccccc2)nc2[nH]c(=O)n(-c3ccccc3)c(=O)c12 | 4.7 |

| Compound | hERG current change (%, negative = inhibition) at 10uM [%] |
| --- | --- |
| O=C(Oc1ccc(-c2cn3c(n2)SCC3)cc1)c1ccccc1 | 2.58 |
| Cc1ccc2oc(=O)c(/C=C(\O)c3sc(C)nc3C)nc2c1 | -3.17 |
| O=C(CC(C(=O)N1CCc2ccccc21)n1ccnc1)NCc1cccnc1 (centres unmarked) | -6.03 |
| CCN(C(=O)CSc1nnc(-c2cccs2)n1CC)C1CCS(=O)(=O)C1 (centres unmarked) | 3.65 |
| CCC(=O)c1ccc(OCC(=O)NCCC2=CCCCC2)c(OC)c1 | -16.3 |
| CC12CCC(C(=O)O)(c3nc(C#N)c(C#N)nc31)C2(C)C (centres unmarked) | 14.2 |
| COc1ccc(-c2cn(Cc3ccc([N+](=O)[O-])cc3)nn2)cc1 | -9.43 |
| CCCCOc1ccc(OCCCC)c2c1NC1(N2)C(=O)N(C(C)=O)c2ccccc21 | 6.69 |
| CCCCNC(=O)CNC(=O)c1nn(-c2ccc(OC)cc2OC)c(=O)c2ccccc12 | 6.44 |
| COc1cc(NS(=O)(=O)c2cc(C(=O)N3CCN(C(C)=O)CC3)ccc2OC)cc(OC)c1 | 4.09 |
| Cc1nc2ccccc2nc1OCC(=O)Nc1cc(C(F)(F)F)ccc1N1CCOCC1 | 0.222 |
| COc1cc(C2/C(=C(\O)c3ccc4c(c3)CC(C)O4)C(=O)C(=O)N2Cc2ccco2)ccc1O (centres unmarked) | -3.61 |
| N#Cc1ccccc1 | 14.6 |
| c1ccc2c(c1)CC(CN1CCNCC1)O2 (centres unmarked) | -52.3 |
| COc1ccccc1-c1cc(C(F)(F)F)nc(S(=O)(=O)CCCC(=O)Nc2cc(C)on2)n1 | -7.67 |
| NC(=O)NC(CCC(=O)O)C(=O)O (centres unmarked) | -2.61 |
| COc1ccc(N(C)C(=S)Nc2ccc3nc(C)c(C)nc3c2)cc1 | -6.56 |
| COc1ccc(N(CC(=O)NCc2ccco2)S(C)(=O)=O)cc1Cl | -2.22 |
| COc1ccc(N2CCN(C(CNC(=O)c3ccc4c(c3)OCO4)c3cccnc3)CC2)cc1 (centres unmarked) | -16.2 |
| CC(=O)OCCOc1nc(NC(C)C)nc(NC(C)C)n1 | -1.59 |
| CCc1nc2ccccc2c(C(=O)OC2CCOC2=O)c1C (centres unmarked) | 7.9 |
| COc1ccccc1N1CCN(C(=O)CN(CCc2ccccc2)S(C)(=O)=O)CC1 | -1.03 |

| Compound | hERG current change (%, negative = inhibition) at 10uM [%] |
| --- | --- |
| O=C(CN1c2ccccc2Sc2ccccc21)N/N=C/c1ccc([N+](=O)[O-])cc1 | 10 |
| Cc1ccccc1NC(=S)N(CCCN1CCCCC1)Cc1ccco1 | -45.4 |
| CN1CCN(S(=O)(=O)c2ccc(NC(=O)Cc3ccc([N+](=O)[O-])cc3)cc2)CC1 | -4.49 |
| CC(c1ccco1)N(C(=O)c1cccc(S(=O)(=O)N(C)C)c1)c1ccccn1 (centres unmarked) | 16 |
| COc1ccc(NC(=O)CNC(=O)Cn2cnc3sc4c(c3c2=O)CCCC4)cc1OC | 25.3 |
| CCC(=O)Nc1sc2c(c1C(=O)OC)CCN(Cc1ccccc1)C2.Cl | -62.9 |
| Cc1ccc(NC(=S)Nc2cc(C(=O)O)ccc2N2CC3CC(C2)c2cccc(=O)n2C3)cc1C (centres unmarked) | 0.571 |
| CCCCCn1c(SCC(=O)CC(=O)OCC)nc2cc(C(=O)N3CCC(C(N)=O)CC3)ccc2c1=O | -17.7 |
| COc1ccc(CNS(=O)(=O)c2ccc3oc(C(=O)O)c(C)c3c2)cc1 | -2.57 |
| CCCc1c(O)nc(SCc2ccccc2)[nH]c1=O | 0.68 |
| CC[NH+](CC)CC.Nc1ncnc2c1ncn2C1OC(COP(=O)([O-])O)C(O)C1O (centres unmarked) | 19.1 |
| Cn1c(SCc2ccc(Cl)cc2)nc(C(F)(F)F)cc1=O | 36.8 |
| CN(C)C(=O)CSc1nnc([C@@H](N)Cc2ccccc2)o1.Cl | -2.63 |
| Cc1cccc(C(=O)NC(=S)Nc2cccc3nc(C)ccc23)c1 | 4.65 |
| O=C(CSc1nnc2ccccn12)NCCc1ccc(F)cc1 | 5.44 |
| Cc1ccc(C)c(OCc2nnc(NC(=O)c3ccco3)s2)c1 | -1.45 |
| Cc1ccccc1N=C1SCCN1C(=O)CN1C(=O)NC2(CCCC2)C1=O | -21.7 |
| Cc1ccc(CN2CCN(/N=C/c3cccn3C)CC2)c(C)c1 | -33.7 |
| CCn1c2ccc(F)cc2c2nnc(SCCN3CCOCC3)nc21 | -41.2 |
| COc1cccc(CNCC(O)COc2ccc(C(=O)c3ccccc3)cc2)c1 (centres unmarked) | -34.7 |
